# Source: the supplement of paper PMC3334620
# Whole data set: some 33,000 sequences, median “E-score (-0.5 to 0.5)” near -0.016, cut for the highest 2% near 0.31. The list shows a part of the results.
# Target: Cst6 (UniProt P40535)
# Assay: PBM E-score (8-mer binding enrichment) (E-score (-0.5 to 0.5)); higher = stronger / more preferred TF binding; most listed sequences are background and not binding sites
# Conditions: protein concentration: 200 nM; construct: GST-DNA-binding domain
# How it was run: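 Yeast transcription factors, full-length or as DNA-binding domains, were expressed with a GST tag using PURExpress in vitro transcription/translation. At about 100-200 nM they were applied to universal all-10-mer Agilent arrays, double-stranded by primer extension on fresh or once-stripped slides. Fluorescent anti-GST detected bound protein, and masliner normalised the scans. E-scores for ungapped eight-base words, pooled with reverse complements, came from the Universal PBM Analysis Suite.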
row,Sequence,PBM E-score
1,ACAGGAAA,0.15
2,ACCTCGAA,-0.0292
3,ACATGATA,0.255
4,ATTAGCCA,-0.0351
5,ACATTACC,0.153
6,ACGTAGCC,-0.0377
7,ATTTAAGA,0.0665
8,GGGCTTAC,-0.0179
9,AAGGTGTG,-0.0231
10,CCCCTCAA,-0.0665
11,CTACGTCC,-0.0878
12,GTACCCCA,-0.156
13,ACAGGGCT,-0.184
14,GTGCAGCA,-0.275
15,CATGGGCA,-0.252
16,AATTCACG,0.18
17,CCCGTGGC,-0.385
18,GCCACCTA,-0.151
19,AATCCAAA,0.0929
20,GCAAGTGA,0.0628
21,TAGGACAA,-0.0158
22,AGGTTACA,0.0162
23,GCTGTTCA,-0.0453
24,ACAGAATA,0.079
25,GAATACAC,0.0278

row,Sequence,PBM E-score
1,CGCTCTAG,-0.325
2,CAGGACGA,-0.0441
3,AGGTTCCC,-0.278
4,AAACTGCA,0.0554
5,CAGTATTA,0.153
6,ACGAGAAT,0.156
7,AATTGACC,0.0447
8,CGCACTAG,-0.141
9,CTATCCCC,-0.316
10,AACATCCC,-0.227
11,GGGACGCA,-0.173
12,AAGTAGGG,0.037
13,CAACCTAC,-0.0893
14,AACTTTTC,0.122
15,AGGGCCGG,-0.242
16,AACTGGGC,-0.3
17,CCCTATCA,-0.126
18,ACAATTGT,0.0529
19,ACCTATGA,0.116
20,AGTAACCA,-0.0188
21,AACCACTC,-0.119
22,CGAGCGAC,-0.141
23,AAGCATCT,-0.166
24,AACTAACA,0.225
25,AATATCCG,0.177

row,Sequence,PBM E-score
1,GTCAGTAA,0.104
2,ACCGGAAG,0.088
3,AGAGCTAT,-0.122
4,CCTACTGC,-0.051
5,CATCCCTA,-0.234
6,GTCTACAC,-0.129
7,GTCTGGGA,-0.281
8,AAATAGAA,0.0809
9,CCCTTGGC,-0.364
10,AAATATTC,0.221
11,GGGTAACC,-0.203
12,CGAGTAAA,0.0647
13,CATGCAGA,0.09
14,AATCGTAT,0.192
15,CTAGGCTA,-0.304
16,AGCGGCAC,0.123
17,AGGTGTAG,-0.248
18,CGCGTTTC,-0.155
19,AGCGGTGC,-0.211
20,GATATTAC,0.352
21,AGAACACG,0.0964
22,AACGCGTA,0.0257
23,GGCCGAGA,-0.00676
24,TGCTGGAA,0.0991
25,ACCTTGCC,-0.0201

row,Sequence,PBM E-score
1,ACGCCAAC,0.137
2,GGCGTTGA,0.0502
3,CAACACAG,0.0389
4,GTTACTGA,0.151
5,CGGTTGAG,0.0903
6,GAGTCGCC,-0.199
7,ACTATTCC,-0.00938
8,ATGTGCGG,0.113
9,GGTACTGA,-0.0525
10,CGATTTAG,0.167
11,GGCACTAC,-0.0488
12,AAGTCGGT,-0.171
13,GCGCTAAA,0.125
14,GTTCGTTA,0.133
15,ATAGTGAA,-0.00864
16,CGGACAAC,0.0404
17,CCCGAGCA,-0.224
18,GAGTACAA,0.0583
19,GACATGGC,-0.133
20,CATACCCG,0.0134
21,GGAATCAA,-0.0386
22,ACACGCCC,-0.261
23,CCAAGTGC,-0.205
24,GACCCGGA,-0.271
25,TCCCAAGA,-0.00618

row,Sequence,PBM E-score
1,GTAATGCA,0.171
2,GACCGGCA,-0.202
3,GTGATGAA,0.154
4,ACCTACAC,-0.169
5,CCAGAGTC,-0.12
6,GTAACGCA,0.189
7,ATTCAGTA,0.164
8,ACACGGGT,-0.0314
9,ATGTCTTA,0.133
10,CCAGCTAA,-0.157
11,CGAACGGA,0.043
12,CACATGAC,0.254
13,AATAATGT,0.181
14,AAAAGCTG,-0.0375
15,ACAAACAT,0.146
16,AAACCTGT,0.0282
17,ACTAGCAT,-0.168
18,ACATATTC,0.231
19,CAGACGGA,-0.0552
20,CGCATACC,0.117
21,AAGGCATG,0.0974
22,AGGCGTAA,0.095
23,CCTTCTCC,-0.341
24,CCAACGTC,-0.022
25,CTCAATTA,0.109

row,Sequence,PBM E-score
1,CGACACGA,0.0473
2,AACGAAGC,0.0542
3,ACCTGCAT,-0.0443
4,CTAATAAG,0.00507
5,ATCCTCAT,-0.0203
6,AGGCAGTC,-0.0638
7,GGTCCGCA,-0.0844
8,AAGGATTA,-0.0508
9,GTACATTA,0.201
10,AGGTTGAC,0.0459
11,AACTTGCG,0.0436
12,ATCAGACA,-0.00162
13,CTAGTTAC,0.0299
14,AGCAACCG,-0.174
15,CATCAGGG,-0.0573
16,AACGGGCT,-0.296
17,GGTGATTA,0.206
18,ACCCTCCA,-0.28
19,AATCGGCC,-0.117
20,CCGATCCA,-0.0479
21,AAAGTTTC,0.0152
22,GAGTCGCA,-0.285
23,CAGGTGAG,-0.282
24,GGCAATGA,0.207
25,CACGCTGG,-0.133

row,Sequence,PBM E-score
1,CAAGTACA,-0.116
2,CTGACTTC,-0.0605
3,GGCCCCAC,-0.244
4,CACACTAC,-0.0388
5,AATTTAAC,0.249
6,CCGTATCC,-0.0302
7,CATGTGCC,0.00406
8,ATCCACGG,0.0444
9,GTCCCGTA,-0.0814
10,GTCAAACA,0.123
11,CCCATGGC,-0.231
12,AATTTGCA,0.0546
13,GCGTAACA,0.195
14,AGTTTGTG,-0.0842
15,CTCATGAA,0.158
16,ATAAACAA,0.261
17,CAGGGGCA,-0.121
18,CTCCTTCA,-0.294
19,AGGGATAT,-0.165
20,ACCCCGTG,-0.0651
21,CGTAATAC,0.366
22,CCGCTGGA,-0.117
23,ATTATTCG,0.235
24,CGAGCGAG,0.165
25,GTAAGGAA,-0.0373

row,Sequence,PBM E-score
1,GTAGCATA,0.0646
2,TTAAAAAA,0.306
3,AACGCACG,0.179
4,GAATCTGA,-0.108
5,TCACACAA,0.0912
6,ACAATTTA,0.204
7,AATCCCGG,-0.223
8,GGCAGCAA,-0.0802
9,ACACCCTC,-0.27
10,ATGCGACA,0.0988
11,GGCCGGCC,-0.227
12,GCGAACGA,-0.009
13,CTTCTGCA,0.0581
14,CTCCAGGC,-0.193
15,CTTGCGGC,-0.0317
16,CGGCAGCC,-0.158
17,AATCTTAC,0.279
18,AGTCCATA,-0.0525
19,GATCCGAC,-0.146
20,ACTCGGCT,-0.151
21,CATGGTGG,-0.268
22,CGTATTCC,0.171
23,GCAGACCC,-0.299
24,CTTTCCAA,0.0651
25,AAGCACAT,-0.0897

row,Sequence,PBM E-score
1,AACTCGGA,-0.116
2,AGACGTCA,0.484
3,AAGTTTGA,0.0584
4,CACGAGCC,-0.163
5,ACGTCCGA,-0.039
6,AGTCTTAC,0.0422
7,AGCTTGCA,0.0382
8,AAGATGTC,0.0357
9,AATCGTGT,-0.0469
10,AGGGGGAG,-0.445
11,AGCCGTTG,0.0249
12,ACTGAAGA,0.214
13,ATCTGAAT,0.128
14,CCGTTGCC,-0.258
15,CCCGGCGC,-0.176
16,CACCGAAA,0.116
17,CTCACAGC,0.0123
18,ACCAATTG,0.0868
19,ATCTGCGG,0.0732
